Laboratory results reported in PubChem BioAssay AID463173 (ICCB-Longwood Screening Facility, Harvard Medical School, 2010).
Screen size: about 52,000 compounds; about 1,700 (3.3%) were called active. No stated cut-off is given here; in the data, active means survival mostly below about 52% (no sharp cut-off); inactive means mostly above about 56%. The list shows a part of the results.

These molecules were tested on Wild type (assay: growth inhibition of S. aureus wild type versus tarO mutant, primary screen, teichoic acid synthesis inhibitors, RN4220, OD600 (AID 463173)). Conditions: S. aureus RN4220 wild type/DeltatarO growth, OD600, 18 h, stronger effect = lower value, screened at 18.75 µg/mL (by protocol).

Row | Structure (SMILES) | survival
1 | Cc1ccc2oc(-c3ccc(NC(=O)c4oc5ccc(Cl)cc5c4C)cc3)nc2c1 | inactive: 73%
2 | CCc1ccc(NC(=O)CC2C(=O)N(c3ccc(F)cc3)C(=O)N2Cc2ccc(F)cc2)cc1 (centres undefined) | inactive: 76%
3 | O=C(c1cnn(-c2ccc(F)cc2)c1-n1cccc1)N1CCN(c2ccccc2)CC1 | inactive: 78%
4 | Cc1cccc(NC(=O)Cn2c(SCC(=O)NCc3ccccc3)nc3ccccc32)c1C | inactive: 131%
5 | CCOc1ccc(-c2cn3nc(CC(C)C)sc3n2)cc1 | inactive: 107%
6 | CNC(=O)CCC(=O)Nc1ccc(C)cc1 | inactive: 106%
7 | O=C(NCCSCc1ccccc1)C1CCN(S(=O)(=O)Cc2ccccc2)CC1 | inactive: 93%
8 | CCN(CC)c1ccc(C2C(C(N)=O)=C(C)Nc3nc(SCc4ccccc4Cl)nn32)cc1 (centres undefined) | inactive: 149%
9 | CCOC(=O)c1ccc(N=C2SC(C(=O)Nc3ccccc3)CC(=O)N2C)cc1 (centres undefined) | inactive: 91%
10 | COc1ccc(C)cc1NS(=O)(=O)c1ccc2oc(=O)c3ncn(C)c3c2c1 | inactive: 98%
11 | COc1ccc(CC2=C(C)C(=O)N(c3ccc(OC)cc3)C2=O)cc1 | inactive: 97%
12 | COc1ccc(CNC(=O)C2(c3cccs3)CCOCC2)cc1 | inactive: 59%
13 | CCN(CC)S(=O)(=O)c1cccc(C(=O)Nc2ccccc2C(=O)Nc2ccc(OC)cc2)c1 | inactive: 77%
14 | CCOC(=O)C1=C(CN2CCN(c3ccc(C)cc3C)CC2)NC(=O)NC1c1ccc(OC)cc1 (centres undefined) | inactive: 99%
15 | Cc1ccccc1-c1nc(CN2CCC(C(=O)NC(C)C)CC2)c(C)o1 | inactive: 96%
16 | CCCCc1nn2c(=O)cc(COC(=O)CNC(=O)COc3ccc(C)cc3)nc2s1 | inactive: 74%
17 | CCOc1ccc(NC(=O)c2c(NCc3cccs3)sc3c2CCC(C)C3)cc1 (centres undefined) | inactive: 152%
18 | COc1ccc(N2CCN(CC(O)COc3c(OC)cccc3OC)CC2)cc1 (centres undefined) | inactive: 81%
19 | Cc1ccc(NC(=O)Cn2cc(C(=O)c3cccs3)c3ccccc32)cc1C | inactive: 103%
20 | Cc1ccc(C(=O)c2cn(Cc3cccc(F)c3)c3nc(C)ccc3c2=O)cc1 | inactive: 78%
21 | Cc1ccc(-n2c(=O)c3c(cnn3C)n(CC(=O)Nc3cc(C)ccc3C)c2=O)cc1 | inactive: 76%
22 | O=C(CCSCc1cnn(-c2ccccc2)c1-n1cccc1)NCc1ccc(Cl)cc1 | inactive: 76%
23 | O=C(CCn1cccn1)Nc1cccc(C(F)(F)F)c1 | inactive: 65%

Row | Structure (SMILES) | survival
24 | Cc1oc2ncnc(N3CCOCC3)c2c1C(=O)NCc1ccccc1 | inactive: 63%
25 | CCn1c(SCC(=O)N(C2CCCCC2)C2CCCCC2)nnc1C(C)C | inactive: 100%
26 | COc1ccc(C(=O)NCc2ccc3c(c2)CCN3C(=O)c2cccc(C)c2)cc1OC | inactive: 123%
27 | COc1ccc(CCNC(=O)CSc2nc3ccccc3nc2Cc2ccc(Cl)cc2)cc1OC | active: 10%
28 | Cc1nc2sccn2c(=O)c1S(=O)(=O)N1CCN(c2ccc(F)cc2)CC1 | inactive: 82%
29 | CC(C)Cn1c(-c2ccc(S(=O)(=O)N3CCCC3)cc2)csc1=Nc1ccccc1 | inactive: 71%
30 | CCCN(Cc1cccs1)C(=O)Nc1ccc(Br)c(C)c1 | inactive: 71%
31 | Cc1cccc(NS(=O)(=O)c2ccc(Cl)c(C(=O)Nc3ccccc3C)c2)c1 | inactive: 69%
32 | CCCCOc1ccccc1NC(=O)Cn1c(-c2cncs2)nc2ccccc21 | inactive: 76%
33 | Cc1oc(-c2ccccc2)nc1CNS(=O)(=O)c1ccc(Cl)cc1 | inactive: 58%
34 | O=C(O)c1ccccc1C1=Nc2ccc(O)cc2Oc2cc(O)ccc21 | inactive: 110%
35 | O=C(NC1CC(=O)N(c2ccccc2)C1)c1cc2ccccc2o1 (centres undefined) | inactive: 72%
36 | COc1ccc(OC)c(-n2cnc3cc(C(=O)NC4CCCC4)ccc32)c1 | inactive: 72%
37 | O=C(Nc1nnc(S(=O)(=O)N2CCCC2)s1)c1ccc(F)cc1 | inactive: 110%
38 | CCCOc1ccc(NC(=O)CC2C(=O)N(c3cccc(C)c3)C(=O)N2CCc2ccncc2)cc1 (centres undefined) | inactive: 94%
39 | CCOc1ccc(-c2cc(C(=O)NCc3ccc(OC)cc3)c3c(-c4ccc(F)cc4)[nH]nc3n2)cc1 | inactive: 73%
40 | O=C(NCc1ccco1)c1cc(-c2ccccc2)on1 | inactive: 118%
41 | CN1CCN(Cc2c(O)ccc3cc(-c4ccccc4)c(=O)oc23)CC1 | inactive: 119%
42 | Cc1cccc(-c2nc(N3CCN(c4ccc(F)cc4)CC3)c3ccccc3n2)c1 | inactive: 64%
43 | COc1ccc(Nc2nc3c(S(=O)(=O)c4ccccc4)nnn3c3ccc(Cl)cc23)cc1OC | inactive: 133%
44 | CCOC(=O)c1cccc(NC(=O)c2cc3c(=O)n(Cc4cccnc4)ccc3nc2C)c1 | inactive: 128%
45 | CCCCCn1c(=O)[nH]c2cc(C(=O)N3CCN(c4ccccc4F)CC3)ccc2c1=O | inactive: 74%
46 | Cc1ccc(-n2ncc3c(NCCCn4ccnc4)ncnc32)cc1 | inactive: 71%

Row | Structure (SMILES) | survival
47 | CCOC(=O)c1[nH]c2ccccc2c1NC(=O)c1ccc(OCC)cc1 | inactive: 85%
48 | CCN1CCN(CCCNC(=O)c2cnn(-c3ccc(C)cc3)c2C2CCN(C(=O)OC(C)(C)C)CC2)CC1 | inactive: 91%
49 | Cc1ccc(NC(=O)c2cc(-c3cccs3)on2)cc1C | inactive: 82%
50 | CC1CCCC(C)N1C(=O)CN1CCC(N2CCCCC2)CC1 (centres undefined) | inactive: 101%
51 | CN(C(=O)c1cnn2c(C(F)F)cc(-c3ccccc3)nc12)C1CCCCC1 | inactive: 110%
52 | COc1ccc(S(=O)(=O)NCCS(=O)(=O)N2CCN(c3ccccc3F)CC2)cc1 | inactive: 127%
53 | Cc1sc2ncn(C(C)C(=O)OC3CCCCC3)c(=O)c2c1C (centres undefined) | inactive: 97%
54 | c1csc(-c2nc3ccccn3c2Nc2ccc3c(c2)OCCO3)c1 | inactive: 70%
55 | COc1cccc(-n2c(SCC(=O)Nc3ccc(F)cc3F)nc3c([nH]c4ccccc43)c2=O)c1 | inactive: 124%
56 | CCCCOC(=O)c1ccc(NC(=O)CSc2nc3c(c(=O)[nH]2)CCC3)cc1 | inactive: 87%
57 | CC(=O)c1ccc(N2CCN(c3ncnc4onc(-c5ccc(Cl)cc5)c34)CC2)cc1 | inactive: 84%
58 | COc1ccccc1CNC(=O)c1cccc(NC(=O)N2CCSc3ncccc32)c1 | inactive: 77%
59 | COc1cc(-c2nc3cccc(C)n3c2Nc2ccc3c(c2)OCCO3)ccc1O | inactive: 75%
60 | Oc1c(C(c2ccc(Cl)cc2)N2CCCC2)sc2nc(-c3ccco3)nn12 (centres undefined) | inactive: 22%
61 | CCOc1ccccc1C(=O)NCC(c1ccc(N(C)C)cc1)N1CCc2ccccc21 (centres undefined) | inactive: 75%
62 | COc1ccc(CCNC(=O)c2ccc(Cn3c(=O)c4ccccc4n(Cc4ccccc4Cl)c3=O)cc2)cc1OC | inactive: 95%
63 | COC(=O)c1c(-c2ccc(Cl)cc2)noc1N1CCN(c2cccc(OC)c2)CC1 | inactive: 73%
64 | CCOc1cc(-c2ccc(OC(=O)c3ccc(Cl)cc3)c(OC)c2)cc(=O)c2c(C)oc(C)c12 | inactive: 63%
65 | NC(=O)CC1SC(N)=NC1=O (centres undefined) | inactive: 97%
66 | CCc1c(C)nc2[nH]nc(NC(=O)C(F)(F)F)n2c1=O | inactive: 108%
67 | Cc1nnc(N2C(=O)c3oc4ccccc4c(=O)c3C2c2ccc(F)cc2)s1 (centres undefined) | inactive: 79%
68 | COc1cc(N(C(=O)c2cnccn2)C(C(=O)NCc2ccccc2)c2cccs2)ccc1-n1cnnn1 (centres undefined) | inactive: 111%
69 | Cc1c(C(=O)NCc2ccc(F)cc2)sc2nc(-c3ccccc3)cn12 | inactive: 143%

Row | Structure (SMILES) | survival
70 | Cc1cccc(NC(=O)CN(C)S(=O)(=O)c2cnc[nH]2)c1C | inactive: 75%
71 | O=C(Cc1ccc(NC(=O)N2CCCCc3ccccc32)cc1)Nc1ccccc1Br | inactive: 89%
72 | Cc1ccc(Cl)cc1NC(=O)c1cc(-c2ccc3c(c2)OCCO3)on1 | inactive: 67%
73 | Cc1cc(C)c(NC(=O)CN2C(=O)CCn3nc(-c4cccn4C)cc32)c(C)c1 | inactive: 67%
74 | Cc1ccc(-n2ncc(C(=O)NCCCN3CCN(C)CC3)c2C2CCN(C(=O)OC(C)(C)C)CC2)cc1 | inactive: 72%
75 | Cc1ccccc1CN1c2ccccc2-c2nc(SCC(=O)Nc3cc(F)ccc3F)ncc2S1(=O)=O | inactive: 85%
76 | CCCCNc1cc(N2CCN(C3CCCCC3)CC2)c2noc3c2c1C(=O)c1ccccc1-3 | active: -1%
77 | CCCCC(=O)N1CCN(c2nc3c(C)c(C)ccc3s2)CC1 | inactive: 64%
78 | O=C(NCC1CCCO1)C1CC(=O)N(c2ccccc2)C1 (centres undefined) | inactive: 123%
79 | Cc1cc(C)c(NC(=O)CSc2cn(CC(=O)N3CCOCC3)c3ccccc23)c(C)c1 | inactive: 103%
80 | CCOc1ccc(NC(=O)c2oc3ccccc3c2NC(=O)Cc2cccs2)cc1 | inactive: 78%
81 | CCN1CCN(C(=O)c2ccc3c(c2)N(Cc2ccc(Cl)cc2)C(=O)c2ccccc2S3=O)CC1 (centres undefined) | inactive: 84%
82 | CCc1ccc(Cn2c(CNS(=O)(=O)c3ccc4c(c3)CCCC4)nc3cccnc32)cc1 | inactive: 66%
83 | COc1cccc(Cn2c(=O)n(CC3CCC(C(=O)N4CCOCC4)CC3)c(=O)c3sccc32)c1 (centres undefined) | inactive: 135%
84 | Cc1oc2ncn(CC(C)C)c(=O)c2c1C(=O)NCCCN1CCCCC1C (centres undefined) | inactive: 72%
85 | Cc1cc(C)c2c(n1)SCC(=O)N2CC(=O)Nc1cccc(C)c1C | inactive: 76%
86 | CCc1ccc2c(c1)c(=O)c(C(=O)c1ccc(C)cc1)cn2CC(=O)Nc1ccccc1C | inactive: 71%
87 | O=C(NC1CCCCC1)C(c1ccco1)N(Cc1cccs1)C(=O)C(F)(F)F (centres undefined) | inactive: 103%
88 | CCc1ccc2c(c1)c(=O)c(C(=O)c1ccccc1)cn2CC(=O)Nc1ccc(C)c(Cl)c1 | inactive: 75%
89 | COc1ccc(-c2nnc(SCC(=O)NCCc3ccccc3)nc2-c2ccc(OC)cc2)cc1 | inactive: 70%
